This passage reports activation results from PubChem BioAssay AID1346428 (National Center for Advancing Translational Sciences (NCATS), 2018).

Values joined by “and” are separate entries in the source; they are usually repeats but may differ in a detail not shown here. Equal entries are not always repeated. The whole screen tested about 48,000 compounds, of which about 1,200 (2.5%) were called active. Roughly 2% stayed inconclusive and do not appear here.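 How the source made its calls: active means activation of at least 60% and not above a set upper limit (about 1 call in 100 departs from these limits); inconclusive means activation of 40% to 60%, or above that upper limit; inactive means activation under 40%.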 The list shows a part of the results.

The assay concerns the target Probable G-protein coupled receptor 32 (Homo sapiens) (UniProt O75388). Briefly: qHTS for Agonists of Human Resolvin D1 Receptor DRV1. Further: 0% is about no effect. As to conditions: CHO-K1 GPR32 beta-arrestin PathHunter luminescence, 90 min; at 76.9 µM; active compounds read high; zero percent set by DMSO-only wells. The essentials: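 Agonism was scored by beta-Gal fragment complementation (chemiluminescent read, 1 h detection at ambient temperature) reporting beta-arrestin binding to GPR32 in engineered CHO-K1 cells. Compound treatment lasted 90 min at 37 C, normalized to a DMSO basal control.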
UniProt O75388, sequence (O75388 whole entry, looked up, the tested form may be a part): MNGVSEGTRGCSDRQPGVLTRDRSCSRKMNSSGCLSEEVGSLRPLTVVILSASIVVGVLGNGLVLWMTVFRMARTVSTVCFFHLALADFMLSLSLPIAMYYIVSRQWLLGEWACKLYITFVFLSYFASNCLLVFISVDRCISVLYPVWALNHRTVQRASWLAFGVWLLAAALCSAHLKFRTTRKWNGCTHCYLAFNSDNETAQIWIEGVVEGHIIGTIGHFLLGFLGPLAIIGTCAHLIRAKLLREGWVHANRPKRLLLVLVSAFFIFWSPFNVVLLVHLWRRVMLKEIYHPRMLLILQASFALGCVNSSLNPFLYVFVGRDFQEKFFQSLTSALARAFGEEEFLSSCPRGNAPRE
Take `Cc1ccc(C)c(NC(=O)C2CCCN(c3nc4ccccc4s3)C2)c1` (centres undefined): the activation was inactive: 0.53%.
With `Cc1c2cnn(CC(=O)N3CCCCC3)c(=O)c2c(C)n1Cc1ccc(F)cc1` the figure was inactive: -4.28%; with `COc1cccc(CNC(=O)C(CC(C)C)NS(=O)(=O)c2ccc3c(c2)oc(=O)n3C)c1` (centres undefined), inactive: -1.59%; with `CCC1CCCCN1CCCNC(=O)c1[nH]c2ccccc2c1Sc1ccc(Cl)cc1` (centres undefined), inactive: -5.37%.
Consider `CCOc1ccc(C(c2c(O)cc(C)n(CCOC)c2=O)N2CCN(c3ccccc3)CC2)cc1` (centres undefined), for which the activation was inactive: -11.1%.
On to `Cc1ccc2c(c1)C(=O)OC(C(=O)Nc1ncc(Cc3ccc(C(C)C)cc3)s1)C2` (centres undefined), for which the activation was inactive: 9.82%.
With `COc1ccc(-c2noc(N3CCC(C(=O)Nc4ccc(F)cc4Cl)CC3)n2)cc1` the figure was inactive: -9.68%; with `CCN(C(=O)CCS(=O)(=O)c1cc2[nH]c(=O)c(=O)[nH]c2cc1C)c1ccccc1`, inactive: -1.03%; with `Cc1ccc(Cl)cc1NS(=O)(=O)c1ccc2oc(=O)c3ncn(C)c3c2c1`, inactive: -32.7%.
With `Cc1ccc(-c2cn3nc(N4CCCC(C(=O)Nc5ccc(F)cc5)C4)sc3n2)cc1` (centres undefined), the activation is inactive: -9.23%.
Regarding `Cc1ccc2sc(N3CCN(C(=O)CCS(=O)(=O)c4ccc(Cl)cc4)CC3)nc2c1C`, the activation was inactive: 8.34%.
Regarding `O=C(NCCc1ccc(F)cc1)C(=O)NCC(c1cccs1)S(=O)(=O)c1ccc(F)cc1` (centres undefined), the activation was inactive: 36.5%.
Consider `Cc1ccc(N(CC(=O)N2CCN(c3ccc(Cl)cc3)CC2)S(=O)(=O)c2c(C)nn(C)c2C)cc1`, for which the activation was inactive: -12.7%.
Regarding `CCC(Sc1nc2ncccc2[nH]1)C(=O)Nc1cccc(OC)c1` (centres undefined), the activation was inactive: -3.69%.
With `CCCN(CCC)C(=O)Cn1c(=O)n(-c2cccc(OC)c2)c(=O)c2c(C)c(C(=O)N(C)C)sc21` the figure was inactive: -10.2%; with `COCCCn1c(=O)c2sccc2n2c(CCCC(=O)Nc3cc(C)cc(C)c3)nnc12`, inactive: -14.3%.
For `Cc1ccc(NC(=O)C(Cc2ccccc2)n2cccc2)cc1` (centres undefined), the activation was inactive: -8.49%.
For `COc1ccccc1OCCCSc1nc(-c2ccc(C(C)(C)C)cc2)nc2cc(=O)[nH]n12`, the activation was active: 75.1%.
For the molecule `CN1CCc2c(sc3c2C(=O)NC(c2ccc(OC(=O)c4ccccc4)cc2)N3)C1` (centres undefined), the activation was inactive: -14.3%.
Consider `COc1ccc(OC)c(NCc2cccn2-c2nnc(N3CCCCC3)s2)c1`, for which the activation is inactive: -12.2%.
With `Cc1ccc(C)c(S(=O)(=O)c2cn(C)c3cc(N4CCCCC4C)c(F)cc3c2=O)c1` (centres undefined) the figure was inactive: -24.9%; with `CC(C)(Oc1ccc(CCNC(=O)c2ccc(Cl)cc2)cc1)C(=O)O`, inactive: 8.88% and inactive: 1.57%.
On to `OCCN1CCN(CCCN2c3ccccc3Sc3ccc(C(F)(F)F)cc32)CC1`, for which the activation was inactive: 46.6% and inactive: -14.4%.
For the molecule `COc1ccc(CNC(=O)Cn2ncc3c4ccccc4n(Cc4cccc(Cl)c4)c3c2=O)cc1`, the activation is inactive: -12.7%.
Take `c1ccc(CC2=NCCN2)cc1`: the activation is inactive: -3.87%.
On to `COc1ccc(C)cc1NC(=O)c1ccc2c(=O)n3c(nc2c1)CCCCC3`, for which the activation is inactive: -16.3%.
Consider `Cn1c(=O)c2c(-c3ccc(Cl)cc3)n(Cc3ccc(Cl)cc3)cc2n(C)c1=O`, for which the activation was inactive: -7.14%.
`COc1ccc(C(=O)NCCn2cc(SCC(=O)Nc3ccc(C)cc3)c3ccccc32)cc1`: the activation was inactive: 3.09%.
With `Cc1ccc(CNC(=O)NCc2noc3ccc(C)cc23)cc1` the figure was inactive: -9.99%; with `NCCCCC(=O)O`, inactive: 6.99%; with `Cc1cccc(-c2nc3c4ccccc4nc(N4CCN(c5ccccc5F)CC4)n3n2)c1`, inactive: 0.0961%.
On to `COCCOC(=O)C1=C(C)NC(=O)NC1c1cn(-c2ccccc2)nc1-c1ccccc1` (centres undefined), for which the activation was inactive: -8.26%.
`CC1Cc2cc(S(=O)(=O)CCC(=O)NCc3ccc(Cl)cc3)ccc2N1C(=O)C1CC1` (centres undefined): the activation was inactive: -0.358%.
Next, `O=C(O)CCc1nc(-c2ccccc2)c(-c2ccccc2)o1`: inactive: 3.05% and inactive: -8.42%; `COc1ccc(OC)c(CCNC(=O)CCc2cn(Cc3cc(C)ccc3C)c3ccccc23)c1`: inactive: -28.3%; `Cc1ccc(Cl)cc1NS(=O)(=O)c1ccc2c(c1)NC(=O)CCS2`: active: 93.9%.
For `O=C(Cn1c(=O)c2cccn2c2ccc(F)cc21)N1CCN(c2ccccc2F)CC1`, the activation is inactive: -18.8%.
For the molecule `COc1cccc(C2NC(=O)c3n[nH]c(-c4cccs4)c32)c1` (centres undefined), the activation is inactive: 18.1%.
On to `Cc1ccc(C)c(NC(=O)Cn2nnc(C(=O)NCc3ccccc3Cl)c2N)c1`, for which the activation was inactive: 24.3%.
Consider `COc1ccc(C(=O)N(Cc2cc(OC)c(OC)c(OC)c2)c2ccccn2)cc1`, for which the activation was inactive: -6.46%.
Consider `O=C(Cn1c(=O)nc(-c2ccccc2)c2ccccc21)NCCc1ccc(Cl)cc1`, for which the activation was inactive: -7.28%.
Turning to `CN1CCN(C(CNC(=O)c2ccccc2F)c2ccc3c(c2)OCO3)CC1` (centres undefined), the activation was inactive: 4.53%.
Consider `COc1ccc(Br)cc1CNC(=O)c1cnc2sc(N3CCCC3)nn2c1=O`, for which the activation is inactive: -1.28%.
Regarding `COc1cc(NC(=O)NCC2CCN(Cc3ccccc3Cl)CC2)cc(OC)c1OC`, the activation was inactive: 3.27%.
Regarding `COc1ccc(-c2cn3nc(N4CCCC(C(=O)Nc5cc(C)ccc5C)C4)sc3n2)cc1` (centres undefined), the activation was inactive: -16.3%.
As for `COc1ccc(NC(=O)c2sc3nc(-c4cc5ccc(OC)cc5oc4=O)[nH]c(=O)c3c2C)cc1`, the activation is inactive: 1.24%.
In the case of `CCCCN(CC)CCNC(=O)CCn1cnc2onc(-c3ccc(F)cc3)c2c1=O`, the activation was inactive: 25.9%.
On to `Cc1cccc(-n2cc(-c3ccccc3)c3c(N4CCC(C)CC4)ncnc32)c1`, for which the activation was inactive: -32.1%.
With `CCc1ccccc1NC(=O)C1CCN(S(=O)(=O)c2ccccc2)CC1` the figure was inactive: 25.7%.
Next, `O=C(NC1CCCC1)c1ccc(CSc2nc3ccncc3n2Cc2cccc(F)c2)cc1`: inactive: -17.2%; `O=C1c2ccccc2C(=O)C1c1ccccc1`: inactive: -8.08%.
`CCOc1cc(C(=O)NCc2ccc3c(c2)CCN3C(=O)c2ccc(F)cc2)cc(OCC)c1OCC`: the activation was inactive: -19.1%.
Next, `O=C(Cn1ccnc1[N+](=O)[O-])NCc1ccccc1`: inactive: 3.09%; `CCCCOc1ccc(C(=O)Nc2ccc3oc(-c4cccnc4)nc3c2)cc1`: inactive: -3.62%.
Next, `COc1ccc(CNC(=O)C(C)Sc2nc(-c3ccccc3)cc(C(F)(F)F)n2)cc1` (centres undefined): inactive: -5.73%; `O=C(COc1ccccc1Cl)OCc1cc(=O)n2nc(C3CCCCC3)sc2n1`: inactive: -9.5%.
`CC1Cc2cc(S(=O)(=O)NCCc3ccc(Cl)cc3)ccc2N1C(=O)C1CCC1` (centres undefined): the activation was inactive: -4.5%.
Take `COc1ccccc1Cn1cc(C(=O)c2ccc(Cl)cc2)c(=O)c2ccccc21`: the activation is inactive: 34.9%.
As to `Cc1c2cnn(CC(=O)NCC(C)c3ccccc3)c(=O)c2c(C)n1Cc1cccc(Cl)c1` (centres undefined), the activation is inactive: -3.86%.
`Cc1cccc(S(=O)(=O)c2cn(Cc3ccccc3)c3cc(N4CCOCC4)c(F)cc3c2=O)c1`: the activation is inactive: -10.5%.
For `CCc1ccc(C(=O)c2cnc3ccc(F)cc3c2S(=O)(=O)c2ccccc2)cc1`, the activation was inactive: -24.1%.
For `CC(C)OCCCNC(=O)c1cn(C)c2ccc(S(=O)(=O)N3CCCCCC3)cc2c1=O`, the activation was inactive: 2.82%.
On to `Cc1cccc(C(=O)Nc2ccc(-c3nc4ncccc4o3)cc2C)c1`, for which the activation was inactive: -7.09%.
As to `CCn1ccc2cc(S(=O)(=O)N3CCC(C(=O)NCCc4ccccc4Cl)CC3)ccc21`, the activation is inactive: -8.09%.
For `Cc1oc2ccc(O)c(CN3CCCC3)c2c1C(=O)Nc1ccccc1`, the activation was inactive: -14.4%.
Next, `Cc1cccc(N2CCN(C(=O)C3CCCN(S(=O)(=O)c4ccc5c(c4)oc(=O)n5C)C3)CC2)c1C` (centres undefined): inactive: 6.14%; `CCc1cccc2c(-c3ccccc3)nc(SCC(=O)Nc3ccccc3OC)nc12`: inactive: 1.25%; `COc1ccccc1NC(=O)C(C)Sc1nnc2ccc3ccccc3n12` (centres undefined): inactive: 3.64%.
Consider `Cc1ccc(CNC(=O)CN2C(=O)CCn3nc(-c4ccccc4)cc32)cc1`, for which the activation is inactive: -14.2%.
With `Clc1ccc2c(c1)C(N1CCNCC1)=Nc1ccccc1O2`, the activation was inactive: -20.2% and inactive: -6.69%.
Consider `Cc1ccc(-n2ncc(C(=O)NCc3cccs3)c2C2CCN(C(=O)OC(C)(C)C)CC2)cc1`, for which the activation is inactive: -28.3%.
As to `CC(C)N=C(N)/N=C(\N)Nc1ccc(Cl)cc1`, the activation was inactive: 21.5%.
In the case of `CCCCOc1ccc(C(=O)NCCc2csc(-c3cccc(F)c3)n2)cc1`, the activation was inactive: 21.7%.
Consider `CCCn1c(=O)c2sccc2n2c(CCCC(=O)NC3CCC(C)CC3)nnc12` (centres undefined), for which the activation is inactive: -4.35%.
Next, `CCCCC/C(C=O)=C\c1ccccc1`: inactive: 0.0029%; `CN(C)c1ccc(CNC(=O)c2ccc3nc(Cc4ccccc4)oc3c2)cc1`: inactive: -21.2%; `Cc1cc(C)c(NC(=O)C(=O)NCCc2csc(-c3ccc(F)cc3)n2)c(C)c1`: inactive: -11.7%.
On to `CSc1ccc(CCNC(=O)c2csc3c2CCCCC3)cc1`, for which the activation was inactive: -20.2%.
Consider `O=C(O)CCn1ccc2cc(S(=O)(=O)N3CCCCCC3)ccc21`, for which the activation was inactive: -17.4%.
For `Cc1ccc(C(=O)c2c(N)c(C(=O)Nc3cccc(C(F)(F)F)c3)c3ccccn23)cc1`, the activation was inactive: -2.45%.
With `Cc1ccc(-n2c(=O)c3oc4ccccc4c3n(Cc3cccc(F)c3)c2=O)cc1C` the figure was inactive: -20.8%; with `COc1ccccc1Nc1c2c(nc3ccc(NC(=O)c4ccc(N(C)C)cc4)cc13)CCCC2`, inactive: -34.9%.
Take `Cc1cccn2c(=O)c(C(=O)N3CCN(c4ccccc4)CC3)cnc12`: the activation was inactive: 1.15%.
As for `COc1cc(Nc2nc(-c3ccc(OC)c(OC)c3)nc3ccccc23)cc(OC)c1`, the activation was inactive: -31.4%.
